Test results: PMC8713996, “An anti-tuberculosis compound screen using a zebrafish infection model identifies an aspartyl-tRNA synthetase inhibitor” (Disease Models & Mechanisms, 2021)
In brackets after ≈: the same amount, converted by molar mass. Where two headings read alike, the source gives them in different places.

Key:
[1] = tested on: M. marinum M^USA; assay: microbe, parasite or virus in culture; assay type: cell-based, Mycobacterium marinum; settings: for MIC90: Mycobacterium marinum, read-out: MIC90 Mmar in vitro
[2] = tested on: M. tuberculosis H37Rv; assay: microbe, parasite or virus in culture; assay type: cell-based, Mycobacterium tuberculosis; settings: for MIC90: Mycobacterium tuberculosis, H37RV, read-out: MIC90 Mtb in vitro
[3] = tested on: M. marinum-tdTomato yolk-infected zebrafish embryos; settings: in vivo
[4] = tested on: Mtb-infected THP-1 macrophages; assay: microbe, parasite or virus in culture; assay type: cell-based; settings: Mycobacterium tuberculosis, read-out: MIC50 Mtb ex vivo
[5] = tested on: M. marinum-tdTomato yolk-infected zebrafish embryos; settings: for Survival of M. marinum-infected embryos: waterborne, 25× to 400× MIC added at 1 dpi, survival at 4 dpi
[6] = tested on: S. pneumoniae; assay: microbe, parasite or virus in culture; settings: Streptococcus pneumoniae, read-out: MIC90 S. pneumoniae
[7] = tested on: S. pneumoniae D39V; assay type: in vivo; settings: 24 hpt
[8] = tested on: E. coli GK1161434; settings: zebrafish, in vivo
[9] = tested on: Escherichia coli; assay: microbe, parasite or virus in culture; assay type: cell-based
[10] = tested on: Mycobacterium abscessus; assay: microbe, parasite or virus in culture; assay type: cell-based; settings: Mycobacteroides abscessus
[11] = tested on: Acinetobacter baumannii; assay: MIC by optical density, Acinetobacter baumannii
[12] = tested on: M. marinum wild type transformed with aspS or mmpL13 expression vectors; assay: microbe, parasite or virus in culture; assay type: cell-based; settings: for MIC90: Mycobacterium marinum
[13] = tested on: Mmar-R-TBA161-C (aspS R168G); assay type: cell-based
[14] = tested on: THP-1 cell line; settings: human
[15] = tested on: Bacillus subtilis 168; assay: MIC by optical density, Bacillus subtilis
[16] = tested on: Klebsiella pneumoniae LMG20218; assay: MIC by optical density, Klebsiella pneumoniae
[17] = cited from earlier work
[18] = tested on: M. marinum-tdTomato infected zebrafish embryos; assay type: in vivo; settings: injected at 1 dpi
[19] = intravenous injection of 1× or 10× MIC

For `O=c1c2cc(Cl)ccc2oc2nc3n(c(=O)c12)CCCS3` [TBA161, 9-chloro-3,4-dihydro-chromeno[2′,3′:4,5]pyrimido[2,1-b][1,3]thiazine-6,7-dione], the MIC90 [1] was 3.1 ± 0.6 µM (≈ 0.994 µg/mL), the MIC90 [2] was 14.6 ± 7.3 µM (≈ 4.68 µg/mL) and the “Bacterial load in infected embryos, dose-response” value (“Bacterial load in infected embryos” for short) [3] was “among the four most active compounds”. It also gave an MIC50 [4] of 2.5 ± 1 µM (≈ 0.802 µg/mL).
With `CC(=O)NC[C@H]1CN(c2ccc(N3CCOCC3)c(F)c2)C(=O)O1` [linezolid] the “Survival of M. marinum-infected embryos” value [5] was “dose-dependent increase in zebrafish survival” and the “Bacterial load (integrated red fluorescence) in infected embryos vs DMSO” value (“Bacterial load … vs DMSO” for short) [3] was “did not reduce the bacterial load”.
In the case of `CC(C)(O/N=C(\C(=O)N[C@@H]1C(=O)N2C(C(=O)[O-])=C(C[n+]3ccccc3)CS[C@H]12)c1csc(N)n1)C(=O)O` [ceftazidime], the MIC90 [6] is reported as 0.91 µM (≈ 0.497 µg/mL) and the Zebrafish survival [7, 19] is reported as 100%.
In the case of `C[C@H]1COc2c(N3CCN(C)CC3)c(F)cc3c(=O)c(C(=O)O)cn1c23` [levofloxacin], the “Survival of M. marinum-infected embryos” value [5] is reported as “dose-dependent increase in zebrafish survival”, the “Survival of E. coli-infected embryos” value [8] is reported as “dose-dependent survival” and the “Bacterial load … vs DMSO” value [3] is reported as “did not reduce the bacterial load”. It also gave an MIC90 [6] of 5.53 µM (≈ 2 µg/mL) and an MIC90 ([9]; read-out: MIC90 E. coli) of 0.35 µM (≈ 0.126 µg/mL).
For `CSc1nc2oc3ccc(Cl)cc3c(=O)c2c(=O)n1C(C)C` [TBA161-D, 7-chloro-3-isopropyl-2-(methylsulfanyl)-chromeno[2,3-d]pyrimidine-4,5-dione], the MIC90 [1] was over 20 µM, the MIC90 [2] was over 20 µM and the “Bacterial load in infected embryos” value [3] was “all derivatives except TBA161-D showed a significant reduction”. For the same compound, the MIC50 [4] was over 30 µM.
In the case of `O=C(O)c1ccc(Nc2nc(-c3cccs3)cs2)cc1O` [GSK93A], the “No activity against M. marinum in culture up to” value [1] is reported as over 40 µM, the “Activity against Mtb in vitro, fold lower” value [2] is reported as 15 fold and the Embryos surviving ([3]; casper) is reported as 40%. For the same compound, the “Bacterial load in infected embryos” value [3] was “Neither GSK93A nor C1 showed activity” and the “Toxicity towards zebrafish embryos” value [3] was “toxic”.
Compound `O=c1c2cc(Cl)cc(Cl)c2oc2nc3n(c(=O)c12)CCCS3` [TBA161-C, 9,11-dichloro-3,4-dihydro-chromeno[2′,3′:4,5]pyrimido[2,1-b][1,3]thiazine-6,7-dione] has an MIC90 [10] of over 40 µM, an MIC90 [11] of over 80 µM and an MIC90 ([11]; LMG01041) of over 80 µM. For the same compound, the “Protective efficacy (survival of infected embryos)” value ([5]; yolk infection with 1000 CFU, waterborne treatment from 1 dpi) was “highest protective efficacy”, the MIC90 [1] was 1.3 ± 0.1 µM (≈ 0.462 µg/mL) and the MIC90 [2] was 1.3 ± 0.7 µM (≈ 0.462 µg/mL). The “Susceptibility of M. marinum overexpressing wild-type or mutated mmpL13 (P502R)” value ([12]; 4 days) was “did not affect the susceptibility”, the MIC90 ([12]; 96 h, read-out: MIC90, M. marinum overexpressing mutated aspS (aspSMtbF526L)) was over 40 µM and the MIC90 ([12]; read-out: MIC90, M. marinum with genome-integrated aspSMtbF526L) was over 40 µM. For the same compound, the “Increase of MIC90, M. marinum overexpressing wild-type aspS vs wild-type strain” value ([12]; aspSMtb) was “fivefold”, the “MIC90 of resistant M. marinum strains compared to the parental strain” value [13] was “more than tenfold higher” and the TD50 [14] was over 40 µM. For the same compound, the “Not cytotoxic up to” value ([14]; 3 days) was over 40 µM, the MIC90 [15] was over 80 µM and the MIC50 [4] was 1.7 ± 0.7 µM (≈ 0.604 µg/mL). It also gave an MIC90 [9] of over 80 µM and an MIC90 [16] of over 80 µM.
For `NNC(=O)c1ccncc1` [isoniazid], the “Concentration in blood as share of the external drug concentration” value ([17]; zebrafish, ref van Wijk et al., 2020b) is listed as 20%.
In the case of `CC(=O)Nc1ccc(O)cc1` [paracetamol], the “Blood concentration in the embryo as share of the external concentration in the fish water” value ([17]; zebrafish embryo, ref Van Wijk et al., 2019b) is given as 10%.
For `[H]/N=C(/N)N[C@H]1[C@H](O)[C@@H](O)[C@H](O[C@@H]2O[C@@H](C)[C@](O)(C=O)[C@H]2O[C@@H]2O[C@@H](CO)[C@H](O)[C@@H](O)[C@@H]2NC)[C@@H](N/C(N)=N\[H])[C@@H]1O` [streptomycin], the “Survival of M. marinum-infected embryos” value [5] was “no activity”, the “Bacterial load … vs DMSO” value [3] was “did not reduce the bacterial load” and the “Bacterial load after injection of the compound via the caudal vein” value [18] was “significant decrease in the bacterial load”.
Compound `CO/N=C(\C(=O)N[C@@H]1C(=O)N2C(C(=O)O)=C(CSc3nc(=O)c(=O)[nH]n3C)CS[C@H]12)c1csc(N)n1` [ceftriaxone] has an MIC90 [6] of 0.05 µM (≈ 0.0277 µg/mL), a Zebrafish survival ([7]; intravenous injection of 10× the MIC) of 90% and an MIC90 ([9]; read-out: MIC90 E. coli) of 0.19 µM (≈ 0.105 µg/mL).
In the case of `C=CC1=C(C(=O)O)N2C(=O)[C@@H](NC(=O)/C(=N\OCC(=O)O)c3csc(N)n3)[C@H]2SC1` [cefixime], the “Survival of E. coli-infected embryos” value [8] is reported as “dose-dependent survival”.
For `C[C@@H](O)[C@H]1C(=O)N2C(C(=O)O)=C(S[C@@H]3CN[C@H](C(=O)N(C)C)C3)[C@H](C)[C@H]12` [meropenem], the “Survival of E. coli-infected embryos” value [8] was “did not increase the survival”, the MIC90 [6] was 0.29 µM (≈ 0.111 µg/mL) and the Zebrafish survival [7, 19] was 100%. It also gave an MIC90 ([9]; read-out: MIC90 E. coli) of 0.14 µM (≈ 0.0537 µg/mL).
With `NC[C@H]1O[C@H](O[C@H]2[C@H](O)[C@@H](O[C@H]3O[C@H](CO)[C@@H](O)[C@H](N)[C@H]3O)[C@H](N)C[C@@H]2N)[C@H](O)[C@@H](O)[C@@H]1O` [kanamycin] the “Survival of M. marinum-infected embryos” value [5] was “no activity”, the “Bacterial load … vs DMSO” value [3] was “did not reduce the bacterial load” and the “Bacterial load after injection of the compound via the caudal vein” value [18] was “significant decrease in the bacterial load”.
With `Nc1nc(/C(=C/CC(=O)O)C(=O)N[C@@H]2C(=O)N3C(C(=O)O)=CCS[C@H]23)cs1` [ceftibuten] the “Survival of E. coli-infected embryos” value [8] was “dose-dependent survival”.
